Assay results published in PubChem BioAssay (Tox21).
“And” between values parts separate entries of the source, which are not always exact repeats. Identical values can stand only once. This list was built around the results that the source calls inconclusive (neither active nor inactive); the mix of calls is not that of the screen. For some assays here: Potencies beside an inconclusive call are fits to weak or partial responses and may not hold up. Some compounds were tested as several samples or in several runs, with calls that do not always agree. The source made the active and inactive calls. Unless noted, the call rests on the fitted dose curve; in most records, active means well fitted curve in the direction sought with a large enough effect in the repeat runs; inconclusive means weak or mixed curves; inactive means no such curve, though single readings can be large; an effect the other way counts as inactive or inconclusive.

Assays:
[1] = molecular target: Nuclear receptor subfamily 1 group I member 3 (Homo sapiens) (UniProt Q14994); assay: qHTS assay to identify small molecule antagonists of the constitutive androstane receptor (CAR) signaling pathway (AID 1224838);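 further: HepG2 cells stably expressing hCAR with CYP2B6 luciferase reporter stimulated by CITCO; potency means the concentration at half of the fitted maximal effect; nearly all actives have a fitted effect of over 40% in size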
Chain of UniProt Q14994 (Q14994 whole entry, looked up): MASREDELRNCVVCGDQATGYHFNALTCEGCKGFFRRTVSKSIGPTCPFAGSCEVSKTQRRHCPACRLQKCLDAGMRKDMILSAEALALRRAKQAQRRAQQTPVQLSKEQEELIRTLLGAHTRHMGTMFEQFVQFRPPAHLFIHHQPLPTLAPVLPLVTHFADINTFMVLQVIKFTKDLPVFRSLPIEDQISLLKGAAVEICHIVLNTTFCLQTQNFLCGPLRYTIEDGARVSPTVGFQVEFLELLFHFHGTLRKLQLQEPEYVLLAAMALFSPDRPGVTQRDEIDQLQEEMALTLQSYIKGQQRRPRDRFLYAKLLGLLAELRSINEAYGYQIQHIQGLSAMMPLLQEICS
Outline: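 Antagonist mode used CITCO at a final 50 nM to activate CAR in human hepatoma HepG2 cells carrying stable hCAR and a 2.2 kb CYP2B6 promoter-luciferase construct. Compounds were tested at 15 concentrations over 24 h, with luminescence as the end point.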

[2] = molecular target: Thyrotropin receptor (Homo sapiens) (UniProt P16473); assay: qHTS assay to identify small molecule agonists of the thyroid stimulating hormone receptor (TSHR) signaling pathway (AID 1224843; calls by dose curve; further: nearly all actives have a fitted effect of over 45% in size; further: potency means the concentration at half of the fitted maximal effect; on activation: on the % scale 0 is the no-effect control and ±100 the full control effect); conditions: TSHR-HEK293 cells, cAMP HTRF, agonist mode, 30 min; activation: at 92.4 µM (top of the series) unless noted
Chain of UniProt P16473 (P16473 whole entry, looked up): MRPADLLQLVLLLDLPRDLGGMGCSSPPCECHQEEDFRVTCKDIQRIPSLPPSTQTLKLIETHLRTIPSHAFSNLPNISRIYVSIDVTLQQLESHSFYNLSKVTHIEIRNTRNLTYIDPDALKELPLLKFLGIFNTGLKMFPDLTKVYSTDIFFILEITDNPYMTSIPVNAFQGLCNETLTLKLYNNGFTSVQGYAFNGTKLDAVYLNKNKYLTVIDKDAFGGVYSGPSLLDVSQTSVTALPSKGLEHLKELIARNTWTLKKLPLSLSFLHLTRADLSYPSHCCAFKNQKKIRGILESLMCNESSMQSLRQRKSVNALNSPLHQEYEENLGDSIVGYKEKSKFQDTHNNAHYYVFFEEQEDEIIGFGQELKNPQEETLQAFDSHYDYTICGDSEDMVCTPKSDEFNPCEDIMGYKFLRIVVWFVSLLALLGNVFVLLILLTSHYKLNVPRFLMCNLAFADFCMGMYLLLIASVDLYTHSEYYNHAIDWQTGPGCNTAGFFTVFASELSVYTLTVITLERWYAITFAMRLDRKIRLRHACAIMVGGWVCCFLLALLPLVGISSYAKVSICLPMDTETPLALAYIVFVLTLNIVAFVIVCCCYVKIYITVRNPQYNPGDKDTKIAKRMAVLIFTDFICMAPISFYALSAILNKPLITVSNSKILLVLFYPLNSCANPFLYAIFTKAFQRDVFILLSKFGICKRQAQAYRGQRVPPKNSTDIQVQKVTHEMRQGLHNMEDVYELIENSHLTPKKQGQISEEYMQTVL
Outline: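 Using 15 concentrations per compound in triplicate, cAMP production was monitored in TSHR-HEK293 cells after 30 min compound incubation at RT; HTRF reagents followed, with fluorescence intensity recorded after 1 h.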

[3] = qHTS assay to identify small molecule agonists of the hypoxia (HIF-1) signaling pathway - cell viability counter screen (AID 1224844; calls by dose curve; further: potency means the concentration at half of the fitted maximal effect; nearly all actives have a fitted effect of over 50% in size)
Outline: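 Cytotoxicity was measured in parallel with the HRE-driven beta-lactamase readout: after 17 hrs of compound exposure at 37C, HRE-bla ME-180 cells received CellTiter-Glo and luminescence was recorded 30 min later.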

[4] = qHTS assay to identify small molecule agonists of H2AX (AID 1224845; active means well fitted activation curve with a large enough effect in the signal ratio in the repeat runs, not every such curve was filed as active; inconclusive means weak or mixed curves; the % refers to the signal ratio; further: potency means the concentration at half of the fitted maximal effect; on activation (H2AX phosphorylation): on the % scale 0 is the no-effect control and ±100 the full control effect); conditions: CHO-K1 phospho-H2AX Ser139 HTRF, 3 h; activation (H2AX phosphorylation): at 154 µM (top of the series)
Outline: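 Wild-type CHO-K1 cells plated overnight, then exposed 3 hr at 37C to compounds at 15 concentrations (0.76% DMSO). Lysed, then HTRF anti-pH2AX(S139)-cryptate/anti-H2AX-d2 detection after 24 hr at room temperature; emissions 665 and 620 nm.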

[5] = qHTS assay to identify small molecule agonists of H2AX - cell viability counter screen (AID 1224847; calls by dose curve; further: potency means the concentration at half of the fitted maximal effect; nearly all actives have a fitted effect of over 30% in size)
Outline: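 After overnight plating of 1000 CHO-K1 cells per well, a 15-concentration compound series was applied for 3 hr at 37C. Luminescence from CellTiter-Glo, read following 30 min at room temperature, reflected cell viability.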

[6] = qHTS assay to identify small molecule antagonists of the estrogen related receptor (ERR) signaling pathway from Tox21 library (AID 1224848); further: potency means the concentration at half of the fitted maximal effect; nearly all actives have a fitted effect of over 50% in size
Outline: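 Tox21 10K compounds in DMSO tested for ERR pathway antagonism in NTP's ERR cell line; 18 h, 37 C exposure; ONE-Glo luminescence.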

[7] = qHTS RealTime-Glo MT Cell Viability Assay in HEK293 cells - 32 hour (AID 1224868); further: nearly all actives have a fitted effect of over 50% in size; further: potency means the concentration at half of the fitted maximal effect
Outline: (§1)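 Nonlytic real-time viability readout: viable cells convert prosubstrate to NanoLuc substrate, giving luminescence proportional to live cell number. HEK293, 600 cells/well, compound added after 5 h, continuous culture at 37 C.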

[8] = qHTS RealTime-Glo MT Cell Viability Assay in HepG2 cells - 40 hour (AID 1224870); further: potency means the concentration at half of the fitted maximal effect; nearly all actives have a fitted effect of over 50% in size
Outline: (§2)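 HepG2 cells mixed with RealTime-Glo MT reagents (NanoLuc plus cell-permeant prosubstrate) were seeded at 600 cells/well, incubated 5 h at 37 C/5% CO2, then pinned with compounds in DMSO; nonlytic luminescence tracked viability during 40 h treatment.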

[9] = qHTS RealTime-Glo MT Cell Viability Assay in HEK293 cells - 16 hour (AID 1224872)
Outline: as §1

[10] = qHTS RealTime-Glo MT Cell Viability Assay in HepG2 cells - 8 hour (AID 1224873); further: nearly all actives have a fitted effect of over 55% in size; further: potency means the concentration at half of the fitted maximal effect
Outline: as §2

[11] = molecular target: Nuclear receptor subfamily 1 group I member 3 (Homo sapiens) (UniProt Q14994); assay: qHTS assay to identify small molecule agonists of the constitutive androstane receptor (CAR) signaling pathway (AID 1224839); further: potency means the concentration at half of the fitted maximal effect; nearly all actives have a fitted effect of over 15% in size
Outline: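 Using human hepatoma HepG2 cells engineered with hCAR and a CYP2B6-2.2kb reporter, 15-concentration compound series were incubated 24 h alongside PK11195 at 0.75 uM final, with luminescence quantified afterwards.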

[12] = qHTS assay to identify small molecule antagonists of the estrogen related receptor signaling pathway with the pleiotropic PPARgamma coactivator (PGC) from Tox21 10K library - cell viability counter screen (AID 1224840; active means well fitted cell-killing curve with a large enough effect in the repeat runs, not every such curve was filed as active; inconclusive means weak or mixed curves, or effect the other way; inactive means no such curve, though single readings can be large or run the other way; further: potency means the concentration at half of the fitted maximal effect; nearly all actives have a fitted effect of over 40% in size)
Outline: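 Multiplexed viability counter screen in the PGC/ERR cell line: cells treated with DMSO-dissolved compounds for 17.5 hours at 37 C, then viability measured as CellTiter-Fluor fluorescence.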

[13] = qHTS assay to identify small molecule agonists of the estrogen related receptor signaling pathway with the pleiotropic PPARgamma coactivator (PGC) from Tox21 10K library (AID 1224842); further: potency means the concentration at half of the fitted maximal effect; nearly all actives have a fitted effect of over 15% in size
Outline: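 PGC/ERR reporter cells (NTP line) were seeded 2,000 per well, rested 6 h at 37 C/5% CO2, then pin-dosed with compounds in DMSO for 18 h at 37 C; luciferase read by One-Glo luminescence after 30 min at room temperature.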

[14] = qHTS assay to identify small molecule agonists of the hypoxia (HIF-1) signaling pathway (AID 1224846; active means well fitted activation curve with a large enough effect in the signal ratio in the repeat runs, not every such curve was filed as active; inconclusive means weak or mixed curves; the % refers to the signal ratio; further: potency means the concentration at half of the fitted maximal effect); conditions: HRE-bla ME-180 cells, beta-lactamase ratio, 17 h; activation: at 76.8 µM (top of the series) unless noted
Outline: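 Compounds from the Tox21 10K library, dissolved in DMSO, are tested for induction of a hypoxia response element–controlled beta-lactamase reporter in ME-180 cells. Exposure lasts 17 hrs at 37C after a 5 hr settling period, followed by CCF4-AM FRET substrate.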

[15] = qHTS RealTime-Glo MT Cell Viability Assay in HEK293 cells - 40 hour (AID 1224874); conditions: RealTime-Glo luminescence; max response: stronger effect = lower value
Outline: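 Real-time viability in HEK293: signal arises when living cells convert a prosubstrate for NanoLuc in the medium, so luminescence tracks viable cell number. Compound (23 nL, DMSO) added 5 h post-seeding; kinetic reads at 0–40 h, 37 C.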

[16] = qHTS RealTime-Glo MT Cell Viability Assay in HepG2 cells - 24 hour (AID 1224867)
Outline: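 Luminescence read-out: viable HepG2 cells reduce a prosubstrate to a NanoLuc substrate, giving a signal proportional to live cell number. Reads taken at 0, 8, 16, 24, 32 and 40 h of compound exposure at 37 C.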

[17] = A CellTox Green Cytotoxicity Assay to monitor cytotoxicity in HEK293 cells - 0 hour (AID 1224869)
Outline: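 Cells (HEK293, 600/well) and dye reagent are dispensed together. After 5 h at 37 C, 23 nL compound is pinned in. Plates stay at 37 C for 40 h with fluorescence read at 0h, 8h, 16h, 24h, 32h and 40h.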
Tags describe the fitted curve by direction and shape or compound fluorescence and quenching.

Which results are given for `c1ccc2c(c1)Sc1ccccc1N2CC1CN2CCC1CC2` (stereo unspecified)?
Potency [1]: inconclusive: 33.5 µM [inhibitor, single point]; activation [2]: inconclusive: -4.14% [at 42.5 µM]; Potency [3]: inconclusive: 26.8 µM [cytotoxic, single point]; Potency [4]: inconclusive: 55.2 µM [activator]; Potency [5]: inconclusive: 55.2 µM [cytotoxic]; Potency [6]: inconclusive: 33.5 µM [inhibitor]; Potency [7]: inconclusive: 26.8 µM [cytotoxic, single point]; Potency [8]: active: 21.3 µM; Potency [9]: inconclusive: 26.8 µM [cytotoxic, single point]; Potency [10]: inconclusive: 23.9 µM [falling, partial curve, poor fit]

Which Potency [11] does the source give for `O=[N+]([O-])c1ccc(Nc2ccccc2)cc1` here?
The Potency was inconclusive: 27.5 µM [activator, partial curve, poor fit].

And the Potency [12]?
The Potency was inconclusive: 30.9 µM [cytotoxic, partial curve] and inconclusive: 54.5 µM [cytotoxic, partial curve].

And the Potency [13]?
Its Potency is inconclusive: 61.1 µM [activator, single point].

And the Potency [2]?
The Potency was inconclusive: 6.16 µM [inhibitor, full curve].

What about the activation (H2AX phosphorylation) [4] of the same compound?
Its activation (H2AX phosphorylation) is inconclusive: 7.73% and inconclusive: 8.53%.

And the Potency [14]?
The Potency was inconclusive: 62.1 µM.

And the Potency [5]?
The Potency was inconclusive: 114 µM [cytotoxic, single point].

And the Potency [6]?
The Potency was inconclusive: 54.9 µM [inhibitor, partial curve] and inconclusive: 61.1 µM [inhibitor].

What about the Potency [7] of the same compound?
The Potency was active: 24.7 µM and active: 19.5 µM.

What about the Potency [9] of the same compound?
Its Potency is inconclusive: 21.9 µM [cytotoxic, partial curve].

What about the Potency [10] of the same compound?
The Potency was inconclusive: 43.6 µM [falling, partial curve, poor fit].

And the Potency [15]?
Its Potency is active: 27.8 µM and active: 21.9 µM.

What does the source list for `N#CC(C#N)=NNc1cccc(Cl)c1`?
Potency [1]: active: 2.43 µM; Potency [3]: active: 3.09 µM; Potency [4]: inconclusive: 101 µM [falling, partial curve]; Potency [5]: inconclusive: 1.6 µM [cytotoxic, full curve]; Potency [7]: active: 4.9 µM; Potency [8]: active: 19.5 µM; Potency [9]: inconclusive: 7.76 µM [cytotoxic, partial curve]; Potency [10]: inactive

For `O=S1(=O)OC(c2cc(Br)c(O)c(Br)c2)(c2cc(Br)c(O)c(Br)c2)c2ccccc21`, which Potency [1] is on record?
The Potency was active: 25 µM.

And the Potency [2]?
Its Potency is inconclusive: 14.1 µM.

What about the Potency [3] of the same compound?
Its Potency is active: 6.34 µM.

And the Potency [4]?
The Potency was inconclusive: 7.33 µM [cytotoxic, full curve].

What about the Potency [7] of the same compound?
The Potency was “inactive”.

What about the Potency [10] of the same compound?
The Potency was “inactive”.

Which Potency [1] does the source give for `CC1(C)[C@H](C(=O)O[C@H](C#N)c2cccc(Oc3ccccc3)c2)[C@@H]1/C=C(\Cl)C(F)(F)F` here?
The Potency was inconclusive: 63.6 µM [inhibitor, single point].

And the Potency [14]?
Its Potency is inconclusive: 50.9 µM [falling, single point] and inconclusive: 54.9 µM [falling, single point].

What about the Potency [5] of the same compound?
Its Potency is inconclusive: 29.5 µM [cytotoxic, full curve].

What about the Potency [16] of the same compound?
The Potency was “inactive”.

And the Potency [7]?
Its Potency is inconclusive: 38.9 µM [cytotoxic, partial curve].

What about the Potency [9] of the same compound?
Its Potency is inconclusive: 50.9 µM [cytotoxic, single point] and inconclusive: 38.9 µM [cytotoxic, partial curve].

What about the Potency [10] of the same compound?
The Potency was inconclusive: 32.1 µM [falling, partial curve, poor fit].

And the Potency [15]?
Its Potency is inconclusive: 34.7 µM [cytotoxic, partial curve].

Which results are given for `CCCCCCCCCCCCCCCCn1cc[n+](C)c1`?
Potency [1]: inconclusive: 78.6 µM [inhibitor, single point] and active: 30.9 µM and active: 27.4 µM; activation [2]: inconclusive: 0.44% and inconclusive: 16.8%; Potency [4]: inconclusive: 128 µM [inhibitor, partial curve, poor fit] and inconclusive: 45.1 µM [activator, single point]; Potency [17]: inactive; Potency [8]: inconclusive: 44.6 µM [falling, partial curve, poor fit]; Potency [9]: inconclusive: 7.93 µM [cytotoxic, full curve] and active: 24.8 µM and active: 24.6 µM

Which results are given for `CC(C)[C@@H](C(=O)O[C@@H](C#N)c1cccc(Oc2ccccc2)c1)c1ccc(Cl)cc1`?
Potency [1]: inconclusive: 9.83 µM [inhibitor, full curve] and inconclusive: 17.2 µM [inhibitor, partial curve]; Potency [14]: inconclusive: 44.3 µM [falling, partial curve] and inconclusive: 34.7 µM [falling, partial curve]; Potency [5]: inconclusive: 40.1 µM [cytotoxic, full curve]; Potency [7]: inconclusive: 28 µM [cytotoxic, partial curve] and inconclusive: 49 µM [cytotoxic, single point]; Potency [9]: active: 24.9 µM and inconclusive: 24.5 µM [cytotoxic, partial curve]; Potency [15]: inconclusive: 28 µM [cytotoxic, partial curve] and inconclusive: 49 µM [cytotoxic, single point]
